Data taken from publication PMC12136788.
The list shows a part of the results.

B1: chr21:46004801:46004902:+|3pUTR|ENSG00000142156|msi1|FALSE|unique (ssRNA)
RNA: GGGAGUUCUACAGUCCGACGAUCAGACUGGGGCCUGGACUGGACAUGAGAGCCCCUUGGUGCCACAGAGGGCUGUGUCUUACUAGAAACAACGCAAACCUCUCCUUCCUCAGAAUAGUGAUGUGUUCGACGUUUUAUCAAAGGCAACAGAGGAUUGAGCAUCA
B2: chr3:87253716:87253817:+|CDS|ENSG00000083937|unk|FALSE|unique (ssRNA)
RNA: GGGAGUUCUACAGUCCGACGAUCUGCCUCUACUUCAAAGGCUACAAUCUCAGAUGAAGAGAUUGAACGGCAACUCAAGGCUUUAGGAGUAGAUUAGUCAAAAGAAGUCAUACUAUUUUGCUUACUUAUAAUUAUGUAGUAUAACAACAGAGGAUUGAGCAUCA
B3: chr1:61455842:61455953:+|3pUTR|ENSG00000162599|unk|FALSE|unique (ssRNA)
RNA: GGGAGUUCUACAGUCCGACGAUCUUUUCUGUAACAUAUUGGAAAAAGAAAAUGCAGUUAUAUUCCUUUUUUAUUUGUUCCUUUAGUUUGUUUUGGUUCAGCAGUCAGCAGUUAAGUAUAUAACAUGGCCCGCAAGGACAAUGACAACAGAGGAUUGAGCAUCA
B4: chr1:202726062:202726163:-|3pUTR|ENSG00000117139|unk|total|mutant (ssRNA)
RNA: GGGAGUUCUACAGUCCGACGAUCGAAAUGCACCUGAUUUGCCAUUAUACCCACCAUCAAAAGCAACAUGGCCCUUUGGGUAUCCGUGCAAGAUCCGCCUAAGAACCGAGCCGAUCUCUACCUGGAAGAGGGUGAAACAUGGCUCAACAGAGGAUUGAGCAUCA
B5: chr8:122973292:122973393:+|3pUTR|ENSG00000178764|msi1|total|mutant (ssRNA)
RNA: GGGAGUUCUACAGUCCGACGAUCAGAGAUGGUCUCUCCCCAGCCAUGGGCCACCCUUGCCAGUGACUCCAAGUGGAACUACUCCGCUCGCGUGUGCCUGGAGGGUGCGGGAAGUCCAGCGACUCUCAGACGCACCUCCCAGAGCAACAGAGGAUUGAGCAUCA
B6: chrX:48700291:48700392:+|CDS|ENSG00000101945|unk|total|mutant (ssRNA)
RNA: GGGAGUUCUACAGUCCGACGAUCGCUCCGUCGCUGGGAGCAGGAGCUCAAUGCCAAGCGCAGCCAUCUGGGACGCAUCACUGCCGAGAAUGAGGUGGACCUGGACGGCCCUCCGCGGGCCUUCGUGUACAUCAAUGAGUACCGCAACAGAGGAUUGAGCAUCA
B7: chr17:55719626:55720665:-|three_prime_utr|ENSG00000166292|control|control|control (ssRNA)
RNA: GGGAGUUCUACAGUCCGACGAUCUGAAAAAUCAGCUUUCUAUUUACAUGAAACACUUUGGGGGUCAUGGGAGUGCACAGCAUUAGACAGUAUUUGGUUCACCCUGUAAAGUAGCCAAGAAAAGAUGAGAAAAAUCAAGAUAGGCAACAGAGGAUUGAGCAUCA
B8: chr20:31606305:31606406:+|3pUTR|ENSG00000125968|msi1|FALSE|unique (ssRNA)
RNA: GGGAGUUCUACAGUCCGACGAUCUGAGGCACUGGCGAGGAGAGGGCGCUCCUCUCUGCACACCUACUAGUCACCAGAGACUUUAGGGGGUGGGAUUCCACUCGUGUGUUUCUAUUUUUUGAAAAGCAGACAUUUUAAAAAAUGCAACAGAGGAUUGAGCAUCA
B9: ENSG00000168288:stop:overlap|stop_codon|ENSG00000168288|stop_codon|NA|stop_codon (ssRNA)
RNA: GGGAGUUCUACAGUCCGACGAUCGGAGUAUCUUCACUAAUGCAACACCAGACAGCCAUAUUAUGAAGAAAUUAAGUGGAAAUUAGCAGAAAUAUCCAUUCAUUUGCUGUACUAUUUGUAUGUAAUAUUUGGGUUGAUCUAUAACAACAGAGGAUUGAGCAUCA
B10: ENSG00000198589:be:win_9651|3pUTR|ENSG00000198589|bound_else_gene|NA|bound_elsewhere_windowed (ssRNA)
RNA: GGGAGUUCUACAGUCCGACGAUCCUUCAAGUGGUCCCUCUUUUUUUCCUACACACUCAGCUCUUCUCUAAAAGCAAGGAUUUGGAAUGAACAAUUCAGUUUGACAGAAAAAGCUGAAUAAAAUGGCAUCUGUAAUUGAAUUGUCAACAGAGGAUUGAGCAUCA
B11: ENSG00000198898:stop:overlap|stop_codon|ENSG00000198898|stop_codon|NA|stop_codon (ssRNA)
RNA: GGGAGUUCUACAGUCCGACGAUCCUCUGAGAGCUUACGUAAAAGAACAUUACCCGAAUGGAGUCUGCACUGUAAGUCAUCAGUAGCAGCUUUGUGUGUGUGUUUUGUGUAAAUGUGAGUCUUUAGCGUCUCUUAAAAUUUACACAACAGAGGAUUGAGCAUCA
B12: chr15:73560698:73560803:-|3pUTR|ENSG00000156642|msi1_unk|total|mutant (ssRNA)
RNA: GGGAGUUCUACAGUCCGACGAUCUUUUGGGCUUGAUGUGCUGUGAAUGUUGCUUUUUUUUUUCCUUUGUUAAAAUAUUUAAACCGAAGUGAAAAGGUCCUCUGAGGAUCAGAUCAUGCAUGCGCCAUUUUUUACUUAAUGCAGCAACAGAGGAUUGAGCAUCA
B13: ENSG00000175215:stop:overlap|stop_codon|ENSG00000175215|stop_codon|NA|stop_codon (ssRNA)
RNA: GGGAGUUCUACAGUCCGACGAUCUUGAGGAGCUGAGCGGAGCAGAGGACGUCUACACCAGCCUUGGGCAGCUGCGGGCCCCUUAGCCUGCCCUGCUUCCAAGCGACGGCCAUCCCAGUAGGGGACUUUCCCACACUGUGCCUUCAACAGAGGAUUGAGCAUCA
B14: ENSG00000198589:be:win_5351|CDS|ENSG00000198589|bound_else_gene|NA|bound_elsewhere_windowed (ssRNA)
RNA: GGGAGUUCUACAGUCCGACGAUCAUUCAGUUUCACAAGAUCCGGUUUCAAAUAUGAGUAUUACAGAGAGGCUUGAACACGCUUUGGAAAAGGCAGCUCCUCUCCUUCGUGAGAUUUUUGUGGAUUUUGCACCUUUUCUUUCUCCAACAGAGGAUUGAGCAUCA
B15: chr3:100728682:100728848:+|CDS|ENSG00000114354|unk|FALSE|unique (ssRNA)
RNA: GGGAGUUCUACAGUCCGACGAUCUAAUGGCCAGCCAAGACCCCUUGAAUCAAGUCAGGUGAAAUAUCUCCGUCGAGAACUGAUAGAACUUCGAAAUAAAGUGAAUCGUUUAUUGGAUAGCUUGGAACCACCUGGAGAACCAGGCAACAGAGGAUUGAGCAUCA
B16: chr9:86945015:86945116:-|3pUTR|ENSG00000180447|msi1|FALSE|unique (ssRNA)
RNA: GGGAGUUCUACAGUCCGACGAUCUUGGUUUUGGAUAAGUUUGAGCCCUUGACCUUAAUUUCAUUGCUACCACUCUGAUCUCUUAGCACAUUUCUUAGGAUUAAGGGUCCAAAAAUGCUGAUCUAAGGGGUUGCCAUGGUGUUGCAACAGAGGAUUGAGCAUCA
B17: chr12:54350855:54350965:+|3pUTR|ENSG00000111481|msi1|FALSE|unique (ssRNA)
RNA: GGGAGUUCUACAGUCCGACGAUCUUGCCCUGACAUUUUUGUAAAUUCUGUGCCCUUUGCUGUAGCUACACUUCAGAUUAAAGUAGGAGAAAGAAUGUGCUGAGUGUUUUCCUCCCUUUGCCUCUACCUGGCCCUCAUCCCAACCAACAGAGGAUUGAGCAUCA
B18: chr1:213005240:213005351:-|CDS|ENSG00000174606|unk|total|mutant (ssRNA)
RNA: GGGAGUUCUACAGUCCGACGAUCGAACCCAGUGGAAUUCUUCCGCCCUGAUAUUUCUCUGUUGGACAGAGACAAUGUUGGAUCCGUUUUACUCUUACAGCCCAAAAUUCCAUAUGCUGCCUGCCCUGCAAUCUGCGCCGCAAACAACAGAGGAUUGAGCAUCA
B19: chr16:58551611:58551719:-|CDS|ENSG00000125107|unk|FALSE|unique (ssRNA)
RNA: GGGAGUUCUACAGUCCGACGAUCCUGGCUCAGGCCCAGGCUCAGGCCCAGGUUCCAGCAAAAGCUCCUCUUGCUGGUCAAGUUAGCACUAUGGUAACCACCUCAACAACUACCACUGUUGCUAAAACGGUUACGGUCACCAGGCAACAGAGGAUUGAGCAUCA
B20: ENSG00000107863:be:win_1501|CDS|ENSG00000107863|bound_else_gene|NA|bound_elsewhere_windowed (ssRNA)
RNA: GGGAGUUCUACAGUCCGACGAUCGGACAGGAUGAAACCUUAGAAAAUGUCAAUUCUGGAACUCCAAUACCUGAUUCCAAUGGAGAGAAAAAACAGACUUACAAGUGGAGUGGGUUUACUGAACAGGAUGAUAGACGAGGUAUUCAACAGAGGAUUGAGCAUCA
B21: chr11:69651811:69651939:+|3pUTR|ENSG00000110092|msi1_unk|FALSE|overlapping (ssRNA)
RNA: GGGAGUUCUACAGUCCGACGAUCUAAAGCACAGCUGUAGUGGGGUUCUAGGCAUCUCUGUACUUUGCUUGCUCAUAUGCAUGUAGUCACUUUAUAAGUCAUUGUAUGUUAUUAUAUUCCGUAGGUAGAUGUGUAACCUCUUCACAACAGAGGAUUGAGCAUCA
B22: chr5:177457090:177457109:-|3pUTR|ENSG00000113758|msi1_unk|FALSE|overlapping (ssRNA)
RNA: GGGAGUUCUACAGUCCGACGAUCGGUAGUUGAGACGCUGUUGCAAAUUCCACCCCUCCUUCCCUGGUCCAGAUUGUAGCUCUUAGUCCUCCCUGCUCAGCUGGCCGGGUUGGAGGCCUCACCCUGCUUGGGGCCUGGCGUGGGCAACAGAGGAUUGAGCAUCA

target: T1, UNK ZnF1-6 (called full-length) (human, UniProt Q9C0B0 30-357); test: nsRBNS (natural sequence RNA bind-n-seq); RBNS binding buffer (assumed for nsRBNS): 25 mM Tris pH 7.5, 150 mM KCl, 3 mM MgCl2, 0.01% Triton X-100, 500 ug/ml BSA, 20 U/ml SUPERase-In, 4 C; UNK is unkempt and MSI1 is Musashi-1; names of the RNAs are library labels; protein concentration not given here; high values mean tight binding
T1 sequence: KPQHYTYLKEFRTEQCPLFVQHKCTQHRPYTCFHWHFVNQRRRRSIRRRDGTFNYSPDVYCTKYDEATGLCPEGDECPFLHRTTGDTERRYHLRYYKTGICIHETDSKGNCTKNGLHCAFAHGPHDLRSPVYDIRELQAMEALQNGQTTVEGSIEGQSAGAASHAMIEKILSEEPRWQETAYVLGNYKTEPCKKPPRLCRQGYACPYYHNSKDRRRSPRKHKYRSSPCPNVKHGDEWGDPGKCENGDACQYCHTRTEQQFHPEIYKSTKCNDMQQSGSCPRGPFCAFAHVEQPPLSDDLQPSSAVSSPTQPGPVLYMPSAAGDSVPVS

Binder	binding signal [enrichment R]
B1	0.833
B2	1.1
B3	0.708
B4	0.49
B5	0.578
B6	0.67
B7	1.03
B8	0.705
B9	0.868
B10	0.386
B11	1.2
B12	0.537
B13	0.741
B14	0.428
B15	0.768
B16	0.366
B17	0.574
B18	0.517
B19	0.503
B20	1.34
B21	0.537
B22	1.26
